# Experimental data as given in paper PMC4336329 (PLoS ONE, 2015).
# Screen size: about 310,000 compounds; about 14,000 (4.5%) showed an effect of 50% or more. Effects have a minus sign here. The list shows a part of the results.
# Biological target: human ether-à-go-go-related gene (hERG) potassium channel (human, UniProt Q12809)
# Assay: primary screen, population patch clamp on CHO cells stably expressing hERG
# 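Also: peak tail current of the secondary pulse compared with the same well before compound.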
# Sequence of human ether-à-go-go-related gene (hERG) potassium channel (Q12809 whole entry, looked up): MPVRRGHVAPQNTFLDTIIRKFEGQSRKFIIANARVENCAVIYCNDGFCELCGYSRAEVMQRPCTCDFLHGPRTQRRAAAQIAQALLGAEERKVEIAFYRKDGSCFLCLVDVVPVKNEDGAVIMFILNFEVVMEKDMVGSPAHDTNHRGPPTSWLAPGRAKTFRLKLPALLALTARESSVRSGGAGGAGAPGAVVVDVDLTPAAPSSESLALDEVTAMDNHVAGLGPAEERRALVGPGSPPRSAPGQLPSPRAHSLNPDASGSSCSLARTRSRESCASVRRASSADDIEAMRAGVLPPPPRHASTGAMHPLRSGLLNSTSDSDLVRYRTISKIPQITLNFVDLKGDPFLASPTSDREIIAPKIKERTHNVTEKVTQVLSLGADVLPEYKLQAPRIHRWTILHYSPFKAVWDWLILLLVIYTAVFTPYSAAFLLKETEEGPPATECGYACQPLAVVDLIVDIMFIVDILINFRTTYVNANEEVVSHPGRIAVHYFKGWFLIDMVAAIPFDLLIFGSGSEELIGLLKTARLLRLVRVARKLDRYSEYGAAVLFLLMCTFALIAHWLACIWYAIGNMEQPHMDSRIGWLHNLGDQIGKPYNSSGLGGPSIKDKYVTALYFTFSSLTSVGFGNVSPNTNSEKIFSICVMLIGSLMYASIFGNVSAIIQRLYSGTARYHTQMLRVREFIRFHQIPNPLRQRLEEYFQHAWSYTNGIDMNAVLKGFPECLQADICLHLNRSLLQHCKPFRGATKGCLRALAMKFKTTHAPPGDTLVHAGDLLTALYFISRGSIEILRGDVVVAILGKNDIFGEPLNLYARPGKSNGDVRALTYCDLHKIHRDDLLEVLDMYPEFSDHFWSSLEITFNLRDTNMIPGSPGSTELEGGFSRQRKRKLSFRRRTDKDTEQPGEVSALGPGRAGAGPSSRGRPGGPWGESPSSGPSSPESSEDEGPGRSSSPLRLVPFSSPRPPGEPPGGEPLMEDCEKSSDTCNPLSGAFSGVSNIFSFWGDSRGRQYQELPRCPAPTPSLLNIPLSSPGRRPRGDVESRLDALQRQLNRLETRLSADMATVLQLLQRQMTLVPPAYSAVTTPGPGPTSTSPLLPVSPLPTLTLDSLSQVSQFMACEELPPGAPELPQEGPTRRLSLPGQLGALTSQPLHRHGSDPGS
row,SMILES,"hERG current change (%, negative = inhibition) at 10uM [%]"
1,COc1cc(/C=C2\CCc3ccccc3C2=O)cc(OC)c1OC,-11.2
2,Cc1cc(C)nc(SCC(=O)Nc2ccc(S(=O)(=O)N3CCCCC3)cc2)n1,-61.3
3,O=C(NN=C1CCCC1)c1ccc([N+](=O)[O-])cc1,5.73
4,O=C(Cc1ccccc1)Nc1ccccc1C(=O)N1CCCCCC1,-1.6
5,COCCOC(=O)c1[nH]c2c(c1C)C(=O)CC(c1ccc(F)cc1)C2 (centres unmarked),5.27
6,CC(C)(C)C(=O)Nc1ccc(C(=O)Nc2cccc(Oc3ccc(C(=O)O)c(C(=O)O)c3)c2)cc1,15.4
7,O=C(CNC(=O)c1ccc(Cl)cc1Cl)NCC(=O)Nc1ccccc1N1CCOCC1,-27.6
8,CSc1nc(N)nc(SCC(=O)c2ccccc2)c1C#N,-1.73
9,COc1ccc(OC)c(NC(=O)c2cccc(N3C(=O)C4C5CCC(C5)C4C3=O)c2)c1 (centres unmarked),-40.5
10,c1ccc(Cc2nn3c(-c4ccncc4)nnc3s2)cc1,-38.6
11,COc1ccc([C@H]2CC(=O)C=C(c3ccc(F)nc3)C2)cc1OC,-16.2
12,CC(/C=N/NC(=O)c1ccncc1)=C\c1ccccc1,9.78
13,COc1cccc(CN(C)C(=O)c2ccc(COc3ccc(Cl)cc3)cc2)c1OC,16.8
14,Cc1ccc(-c2nnc(Nc3ccc(C(=O)N(C)C)cc3)c3ccccc23)cc1S(=O)(=O)NC(C)(C)CO,9.39
15,CCOC(=O)N1CCC(c2cc(=O)n3[nH]c(C)c(-c4ccc(F)cc4)c3n2)CC1,12.4
16,CCOCc1[nH]c(=S)[nH]c(=O)c1Cc1ccc(OCC)cc1,9.49
17,Cc1ccc(SC2CCN(C(=O)C3CCC(=O)N(C4CC4)C3)CC2)cc1 (centres unmarked),-39.3
18,CCOC(=O)C1CN(S(=O)(=O)c2ccccc2)c2cc(S(=O)(=O)CC)ccc2O1 (centres unmarked),-23.3
19,COc1ccc(/C=N/NC(=O)c2ccncc2)cc1CN1CCCc2ccccc21,-26.1
20,Cc1cc(C)c2c3c(oc2n1)C(=O)N(c1cccc(Cl)c1)CC(=O)N3,1.82
21,COc1cccc(-n2nc(-c3ccnn3-c3ccccc3)c(=O)n(C)c2=O)c1,-19.7
22,O=C(Nc1ccc2c(c1)OCO2)Nc1ccc2c(c1)OCO2,15.3

row,SMILES,"hERG current change (%, negative = inhibition) at 10uM [%]"
1,CS(=O)(=O)c1nc(S(=O)(=O)c2ccc(Cl)cc2)c(N2CCC(O)CC2)s1,-13.9
2,O=C(C1CC(=O)N(c2ccc(Cl)cc2)C1)N1CCC(c2nc3ccccc3[nH]2)CC1 (centres unmarked),-71.6
3,CCN(CC)S(=O)(=O)c1ccc(Cl)c(C(=O)NCc2ccccc2Cl)c1,-24.7
4,CC(=O)Nc1cccc(NC(=O)C(=O)NCC(c2ccco2)N2CCc3ccccc3C2)c1 (centres unmarked),-17.2
5,CCc1cc(=O)oc2c(C)c(O)c(CN(C)C)cc12,4.98
6,CCOC(=O)c1cnc2c(C)cc(Cl)cc2c1N1CCN(C)CC1.Cl,-19.6
7,COc1ccc(-n2cc(C(=O)c3cc4ccccc4oc3=O)c(C(C)=O)n2)cc1,10.5
8,c1ccc2c(c1)[nH]c1c(N3CCSCC3)ncnc12,-4.82
9,COCCCNC(=O)Cn1c(=O)n(CC(=O)NCCc2ccc(OC)c(OC)c2)c(=O)c2sccc21,2.38
10,CC(C(=O)NCc1ccc2c(c1)OCO2)N1c2cccc3cccc(c23)S1(=O)=O (centres unmarked),-22.7
11,CC1(C)Oc2ccc3ccc(=O)oc3c2CC1O (centres unmarked),20.8
12,Cc1ccc(N2CCN(CCCN3C(=O)C4CCCN4C3=O)CC2)cc1.Cl (centres unmarked),-7.45
13,COc1cc2[nH]c(=S)n(Cc3cccs3)c(=O)c2cc1OC,21.5
14,N#CC(C#N)=Cc1ccc(-c2ccc(S(=O)(=O)N=C(N)N)cc2)o1,-8.1
15,Oc1cc(O)c2c(c1)O[C@H](c1ccc(O)c(O)c1)[C@H](O)C2,-7.42
16,COc1ccccc1Cn1c(=S)[nH]c2ccc(Br)cc2c1=O,17.7
17,O=[N+]([O-])c1ccccc1OCCOc1ccccc1[N+](=O)[O-],9.27
18,O=C(Cn1nc(C(=O)O)c2ccccc2c1=O)Nc1nc(-c2ccccc2)cs1,-12.1
19,COc1ccc(CN2CCN(C(=O)c3cccs3)CC2)c(OC)c1OC,-6.53
20,CCN1CCCC1CNC(=O)C(=O)NC (centres unmarked),15.7
21,CCOC(=O)c1c(-c2ccc(C)o2)csc1N,20.5
22,CC(Oc1ccc(Br)cc1)C(=O)NC1CCCCCC1 (centres unmarked),-12.4

row,SMILES,"hERG current change (%, negative = inhibition) at 10uM [%]"
1,COc1ccc(OC)c(CN(CCN2CCOCC2)C(=O)Nc2ccccc2)c1,-10.1
2,CCOC(=O)C(O)(c1ccc(NC(=S)NC(=O)c2ccc(Cl)cc2Cl)c(C)c1)C(F)(F)F (centres unmarked),27.4
3,CCn1cc(C(=O)Nc2ccc(C)c([N+](=O)[O-])c2)cn1,-4.55
4,COc1cc(OC)cc(-c2c(-c3cccs3)c3cc(-c4ccc(OC)c(F)c4)ccc3n2C)c1,12.3
5,CC1=NN(C(N)=S)C(=O)C1N=Nc1ccccc1C (centres unmarked),23.9
6,COc1ccccc1C(=O)Nc1ccccc1C(=O)Nc1ccccc1,9.77
7,COc1ccccc1NC(=O)CSc1nnc(NC(=O)c2ccco2)s1,-1.03
8,O=C(COC(=O)C(O)c1ccccc1)NC12CC3CC(CC(C3)C1)C2 (centres unmarked),-0.0519
9,Cc1cc(NC(=O)c2cnn3c(C(F)(F)F)cc(-c4ccc(Br)cc4)nc23)no1,24.4
10,CCOC(=O)c1ccc(NC(=O)N2CCN(c3ccccc3OC)CC2)cc1,11.4
11,O=C(/C=C/c1ccco1)N(Cc1cccc(Cl)c1)C1CCS(=O)(=O)C1 (centres unmarked),-10.2
12,Cc1cc(C)cc(COc2ccc3c(C)c(CC(=O)O)c(=O)oc3c2C)c1,-41.4
13,Cc1ccc(S(=O)(=O)Nc2ccc(-c3nnc(SCC#N)n3C)cc2)cc1,-11.3
14,O=C(O)COc1ccccc1/C=N/NC(=O)CSc1nc2ccccc2n1Cc1ccccc1,3.79
15,CCN(CC)CCCN(C(C)=O)c1nc(-c2cc(OC)ccc2OC)cs1.Cl,-65.8
16,COc1ccc(N2C(=O)/C(=C/c3ccc([N+](=O)[O-])cc3)C=C2c2ccccc2)cc1,-4.49
17,C=CCNC(=S)NNC(=O)c1csc(CC)c1,2.41
18,COc1ccc(NC(=O)CN(C)S(=O)(=O)c2cccc3nsnc23)cc1OC,-10.3
19,COc1cc(CC(=O)O)ccc1O,-5.48
20,CCNC(=O)CC1C(=O)N(CC)C(=S)N1NC(=O)c1ccccc1 (centres unmarked),19.9
21,COC(=O)c1cn[nH]c1NC(=S)Nc1ccc(C)cc1Cl,4.08
22,COC(=O)c1c(NC(=O)CSc2n[nH]c(N)n2)sc(C)c1C,5.79

row,SMILES,"hERG current change (%, negative = inhibition) at 10uM [%]"
1,CC(=O)Nc1ccc(Nc2nc(-c3ccccc3)nc3ccccc23)cc1,19.2
2,CCN(C(=O)COC(=O)c1ccc(N2C(=O)c3ccccc3C2=O)cc1)C1CCS(=O)(=O)C1 (centres unmarked),13.1
3,CC(C)C(O)(C#CCN1CCCCC1)C(C)C,-1.16
4,CCc1nc(SCc2ccc(C(=O)OC)o2)c2c(=O)n(C)c(=O)n(C)c2n1,-4.89
5,O=C(NC1C(=O)NNC1c1ccccc1)c1ccc(F)cc1 (centres unmarked),11.4
6,Cc1ccccc1NC(=O)COC(=O)Cc1ccsc1,12.7
7,Cc1ccc(OCC(=O)Nc2ccc(S(=O)(=O)N3CCCC3)cc2)cc1,15.5
8,CCCN(CCC)CCCNC(=O)C(NS(=O)(=O)c1ccc2c(c1)CCC(=O)N2)c1ccccc1 (centres unmarked),20.5
9,CC1CCC2(CC1)NC(=O)N(CC(=O)N1CCc3ccccc3C1)C2=O (centres unmarked),34.7
10,Cc1ccc([N+](=O)[O-])cc1Nc1nc(N2CCOCC2)nc(N2CCOCC2)n1,-13.5
11,CCC(NC(=S)NCc1ccc(F)cc1)c1ccc(C(C)C)cc1 (centres unmarked),22.4
12,CC(=O)NC(Cc1ccccc1)C(=O)OCC(=O)c1ccc(Br)cc1 (centres unmarked),17.4
13,CC(C)c1ccc(S(=O)(=O)N2CCN(C(=O)C3CCCC3)CC2)cc1,2.78
14,CNS(=O)(=O)c1cc(NC(=O)c2cnc(SC)n2-c2ccccc2)ccc1C,20.6
15,Clc1cccc(CN2CCC(Cc3ccccc3)CC2)c1,-27.9
16,O=C(c1cnccn1)N1CCCC(N2CCN(c3cccc(Cl)c3)CC2)C1 (centres unmarked),-18.7
17,CC1CCC(NC(=O)CN2CCCN(Cc3ccc(F)cc3Cl)C2=O)CC1 (centres unmarked),-6.87
18,CCN(CC)C1CC(=O)N(c2cccc(Cl)c2)C1=O (centres unmarked),17.2
19,Cc1ccc(-c2nnn(CC(=O)N(CCCO)C(C(=O)NC3CCCC3)c3ccc(Cl)cc3)n2)o1 (centres unmarked),15.7
20,O=C(Cn1nnc(-c2ccccc2)n1)NCc1ccc2c(c1)OCO2,19.1
